For this test, the target named is T1, recombinant Syrian hamster vimentin (Cytoskeleton Inc.) (Syrian hamster, UniProt P02544 2-465, limits assumed).
T1 construct: also called pure vimentin; purified hamster vimentin
The experiment in a line: GST pull-down in vitro with purified hamster vimentin (0.1 microgram), negative control, Western blot.

T1 sequence (P02544 2-465 limits assumed): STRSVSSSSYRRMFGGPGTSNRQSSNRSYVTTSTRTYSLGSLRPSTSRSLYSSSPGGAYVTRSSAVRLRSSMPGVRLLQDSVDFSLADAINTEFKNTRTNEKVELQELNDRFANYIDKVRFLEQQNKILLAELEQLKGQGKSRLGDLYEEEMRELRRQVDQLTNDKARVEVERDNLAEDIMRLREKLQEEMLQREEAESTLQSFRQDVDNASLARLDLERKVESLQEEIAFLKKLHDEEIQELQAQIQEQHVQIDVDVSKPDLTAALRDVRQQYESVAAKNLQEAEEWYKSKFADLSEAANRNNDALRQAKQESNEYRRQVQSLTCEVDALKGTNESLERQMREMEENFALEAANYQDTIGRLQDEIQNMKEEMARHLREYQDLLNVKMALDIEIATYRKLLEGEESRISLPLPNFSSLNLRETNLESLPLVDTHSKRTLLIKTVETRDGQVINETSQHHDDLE

B1: GST alone (other)
chain: not shown
notes: Negative control of the GST pull-downs
As for B1, the binding result is “no binding”.

(Values after patent publication US20060239988A1 (published 2006).)
